Results as given in article PMC9911399, “Two distinct binding modes provide the RNA-binding protein RbFox with extraordinary sequence specificity”.
Residue numbers refer to the chain shown, from its start. The list shows a part of the results.

Tests used:
[1] = biological target: T1, RBFOX1 RRM RbFoxmut (Fox-RRM*) (Homo sapiens, UniProt Q9NWB1 109-208, R118D;E147R;N151S;E152T); assay: EMSA; HiTS-Eq, 1 nM pool, 10 min; buffer printed only for the single-RNA assays: 10 mM Tris pH 7.5, 150 mM NaCl, 3.4 mM EDTA, 0.001% NP-40, 30 C; settings: tags: His6 N-terminal (pET28a); label: 5' 32P
T1 sequence: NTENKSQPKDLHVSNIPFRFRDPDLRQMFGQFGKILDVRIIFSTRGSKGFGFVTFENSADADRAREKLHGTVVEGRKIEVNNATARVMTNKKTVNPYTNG
How it was run: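 Purified RbFox RRM, wild type or mutant, was incubated for 10 min in 50 µL with 1 nM of a 5′-radiolabelled RNA pool carrying 7 randomized nucleotides, whose flanks were annealed to DNA oligonucleotides, over a series of increasing protein concentrations. Unbound RNA was resolved on 8% native PAGE, cut out, reverse-transcribed, barcoded by PCR and sequenced on an Illumina HiSeq 2500. Relative association constants were derived from changes in read counts for each RNA species versus the control reaction and normalised to the cognate motif.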

[2] = biological target: T1, RBFOX1 RRM RbFoxmut (Fox-RRM*); assay: competition; 10 mM Tris pH 7.5, 150 mM NaCl, 3.4 mM EDTA, 0.001% NP-40, 30 C; settings: tags: His6 N-terminal (pET28a)

B1: UUGAUUU (DNA:RNA)
RNA: GGGAGACCGGAAUUCAGAUUGUCCUUGAUUUUUAAAUCCCGUCGUAGCCACCA
DNA 1: CAATCTGAATTCCGGTCTCCC
DNA 2: TGGTGGCTACGACGGGATT
B1 was tested, and the binding signal [1] was 0.107 KA relative to UGCAUGU.

GCAUGUC (ssRNA) gave a binding signal [2] of 42.1 nM.

B2: GCAUGUC (DNA:RNA)
RNA: B1 RNA with U25G, U26C, G27A, A28U, U29G, U31C
DNA 1: CAATCTGAATTCCGGTCTCCC
DNA 2: TGGTGGCTACGACGGGATT
With B2 the binding signal [1] was 0.492 KA relative to UGCAUGU.

B3: CGAUGCC (DNA:RNA)
RNA: GGGAGACCGGAAUUCAGAUUGUCCCGAUGCCUUAAAUCCCGUCGUAGCCACCA
DNA 1: CAATCTGAATTCCGGTCTCCC
DNA 2: TGGTGGCTACGACGGGATT
With B3 the binding signal [1] was 0.206 KA relative to UGCAUGU.

B4: CCUUGCU (DNA:RNA)
RNA: B3 RNA with G26C, A27U, C31U
DNA 1: CAATCTGAATTCCGGTCTCCC
DNA 2: TGGTGGCTACGACGGGATT
B4 was tested, and the binding signal [1] was 0.112 KA relative to UGCAUGU.

B5: UGCAGUU (DNA:RNA)
RNA: B1 RNA with U26G, G27C, U29G
DNA 1: CAATCTGAATTCCGGTCTCCC
DNA 2: TGGTGGCTACGACGGGATT
In the case of B5, the binding signal [1] is reported as 0.107 KA relative to UGCAUGU.

B6: UUCAUUA (DNA:RNA)
RNA: B1 RNA with G27C, U31A
DNA 1: CAATCTGAATTCCGGTCTCCC
DNA 2: TGGTGGCTACGACGGGATT
With B6 the binding signal [1] was 0.157 KA relative to UGCAUGU.

B7: UCGGCAU (DNA:RNA)
RNA: B1 RNA with U26C, A28G, U29C, U30A
DNA 1: CAATCTGAATTCCGGTCTCCC
DNA 2: TGGTGGCTACGACGGGATT
B7 was tested, and the binding signal [1] was 0.0889 KA relative to UGCAUGU.

B8: CGGACGC (DNA:RNA)
RNA: B3 RNA with A27G, U28A, G29C, C30G
DNA 1: CAATCTGAATTCCGGTCTCCC
DNA 2: TGGTGGCTACGACGGGATT
With B8 the binding signal [1] was 0.0698 KA relative to UGCAUGU.

B9: AUCGCCG (DNA:RNA)
RNA: B3 RNA with C25A, G26U, A27C, U28G, G29C, C31G
DNA 1: CAATCTGAATTCCGGTCTCCC
DNA 2: TGGTGGCTACGACGGGATT
In the case of B9, the binding signal [1] is reported as 0.108 KA relative to UGCAUGU.

B10: UAACCGU (DNA:RNA)
RNA: B1 RNA with U26A, G27A, A28C, U29C, U30G
DNA 1: CAATCTGAATTCCGGTCTCCC
DNA 2: TGGTGGCTACGACGGGATT
B10 was tested, and the binding signal [1] was 0.0757 KA relative to UGCAUGU.

B11: UUCCUUG (DNA:RNA)
RNA: B1 RNA with G27C, A28C, U31G
DNA 1: CAATCTGAATTCCGGTCTCCC
DNA 2: TGGTGGCTACGACGGGATT
B11 was tested, and the binding signal [1] was 0.111 KA relative to UGCAUGU.

B12: UAACGCU (DNA:RNA)
RNA: B3 RNA with C25U, G26A, U28C, C31U
DNA 1: CAATCTGAATTCCGGTCTCCC
DNA 2: TGGTGGCTACGACGGGATT
For B12, the binding signal [1] was 0.057 KA relative to UGCAUGU.

B13: CGGCCAU (DNA:RNA)
RNA: B3 RNA with A27G, U28C, G29C, C30A, C31U
DNA 1: CAATCTGAATTCCGGTCTCCC
DNA 2: TGGTGGCTACGACGGGATT
B13 was tested, and the binding signal [1] was 0.0673 KA relative to UGCAUGU.

B14: CUUAUAG (DNA:RNA)
RNA: B1 RNA with U25C, G27U, U30A, U31G
DNA 1: CAATCTGAATTCCGGTCTCCC
DNA 2: TGGTGGCTACGACGGGATT
In the case of B14, the binding signal [1] is reported as 0.191 KA relative to UGCAUGU.

B15: GCCGUCC (DNA:RNA)
RNA: B3 RNA with C25G, G26C, A27C, U28G, G29U
DNA 1: CAATCTGAATTCCGGTCTCCC
DNA 2: TGGTGGCTACGACGGGATT
In the case of B15, the binding signal [1] is reported as 0.0566 KA relative to UGCAUGU.

B16: UUAGCAC (DNA:RNA)
RNA: B3 RNA with C25U, G26U, U28G, G29C, C30A
DNA 1: CAATCTGAATTCCGGTCTCCC
DNA 2: TGGTGGCTACGACGGGATT
With B16 the binding signal [1] was 0.0935 KA relative to UGCAUGU.

B17: ACUUUGC (DNA:RNA)
RNA: B3 RNA with C25A, G26C, A27U, G29U, C30G
DNA 1: CAATCTGAATTCCGGTCTCCC
DNA 2: TGGTGGCTACGACGGGATT
In the case of B17, the binding signal [1] is reported as 0.12 KA relative to UGCAUGU.

B18: AAUCAUU (DNA:RNA)
RNA: B1 RNA with U25A, U26A, G27U, A28C, U29A
DNA 1: CAATCTGAATTCCGGTCTCCC
DNA 2: TGGTGGCTACGACGGGATT
For B18, the binding signal [1] was 0.0671 KA relative to UGCAUGU.

B19: CGAACAU (DNA:RNA)
RNA: B3 RNA with U28A, G29C, C30A, C31U
DNA 1: CAATCTGAATTCCGGTCTCCC
DNA 2: TGGTGGCTACGACGGGATT
For B19, the binding signal [1] was 0.0626 KA relative to UGCAUGU.

B20: UUCCAGU (DNA:RNA)
RNA: B1 RNA with G27C, A28C, U29A, U30G
DNA 1: CAATCTGAATTCCGGTCTCCC
DNA 2: TGGTGGCTACGACGGGATT
In the case of B20, the binding signal [1] is reported as 0.084 KA relative to UGCAUGU.

B21: AGGGUAG (DNA:RNA)
RNA: B1 RNA with U25A, U26G, A28G, U30A, U31G
DNA 1: CAATCTGAATTCCGGTCTCCC
DNA 2: TGGTGGCTACGACGGGATT
In the case of B21, the binding signal [1] is reported as 0.167 KA relative to UGCAUGU.

B22: UGUAUUU (DNA:RNA)
RNA: B1 RNA with U26G, G27U
DNA 1: CAATCTGAATTCCGGTCTCCC
DNA 2: TGGTGGCTACGACGGGATT
With B22 the binding signal [1] was 0.106 KA relative to UGCAUGU.

B23: ACUCCCC (DNA:RNA)
RNA: B3 RNA with C25A, G26C, A27U, U28C, G29C
DNA 1: CAATCTGAATTCCGGTCTCCC
DNA 2: TGGTGGCTACGACGGGATT
In the case of B23, the binding signal [1] is reported as 0.0489 KA relative to UGCAUGU.

B24: ACUCUCC (DNA:RNA)
RNA: B3 RNA with C25A, G26C, A27U, U28C, G29U
DNA 1: CAATCTGAATTCCGGTCTCCC
DNA 2: TGGTGGCTACGACGGGATT
For B24, the binding signal [1] was 0.0423 KA relative to UGCAUGU.

B25: CCCCCUC (DNA:RNA)
RNA: B3 RNA with G26C, A27C, U28C, G29C, C30U
DNA 1: CAATCTGAATTCCGGTCTCCC
DNA 2: TGGTGGCTACGACGGGATT
With B25 the binding signal [1] was 0.0703 KA relative to UGCAUGU.

B26: AUGUUAC (DNA:RNA)
RNA: B1 RNA with U25A, A28U, U30A, U31C
DNA 1: CAATCTGAATTCCGGTCTCCC
DNA 2: TGGTGGCTACGACGGGATT
For B26, the binding signal [1] was 0.161 KA relative to UGCAUGU.

B27: AAACGGG (DNA:RNA)
RNA: B3 RNA with C25A, G26A, U28C, C30G, C31G
DNA 1: CAATCTGAATTCCGGTCTCCC
DNA 2: TGGTGGCTACGACGGGATT
B27 was tested, and the binding signal [1] was 0.0603 KA relative to UGCAUGU.

B28: UCCUGUU (DNA:RNA)
RNA: B1 RNA with U26C, G27C, A28U, U29G
DNA 1: CAATCTGAATTCCGGTCTCCC
DNA 2: TGGTGGCTACGACGGGATT
In the case of B28, the binding signal [1] is reported as 0.087 KA relative to UGCAUGU.

B29: AAACGUG (DNA:RNA)
RNA: B3 RNA with C25A, G26A, U28C, C30U, C31G
DNA 1: CAATCTGAATTCCGGTCTCCC
DNA 2: TGGTGGCTACGACGGGATT
In the case of B29, the binding signal [1] is reported as 0.138 KA relative to UGCAUGU.

B30: UAUGGCG (DNA:RNA)
RNA: B3 RNA with C25U, G26A, A27U, U28G, C31G
DNA 1: CAATCTGAATTCCGGTCTCCC
DNA 2: TGGTGGCTACGACGGGATT
B30 was tested, and the binding signal [1] was 0.116 KA relative to UGCAUGU.
